Results as given in PubChem BioAssay AID1347165 (National Center for Advancing Translational Sciences (NCATS), 2019).
The campaign covered roughly 220,000 compounds. About 5,700 (2.6%) were called active. This list was built around the results that the source calls inconclusive (neither active nor inactive); the mix of calls is not that of the screen. The call rests on the fitted dose curve; in most records, active means well fitted inhibition curve with a large enough effect; inconclusive means small, poorly fitted or top-dose-only effect; inactive means no such curve, though single readings can be large or run the other way. Potencies beside an inconclusive call are fits to weak or partial responses and may not hold up.
Further: nearly all actives have a fitted effect of over 70% in size.
Potency means the concentration at half of the fitted maximal effect; tags describe the fitted curve by direction and shape.
Wherever activity change, negative = inhibition is given: 0% is about no effect.

What follows are compounds tested against Lysine-specific demethylase 5B (Homo sapiens) (UniProt Q9UGL1) (assay: Primary screen for KDM5B Histone Demethylases FDH-coupled qHTS). Settings: FDH-coupled NADH fluorescence (FDH is formaldehyde dehydrogenase); activity change, negative = inhibition: at 57.7 µM (top of the series) unless noted.
Chain of UniProt Q9UGL1 (Q9UGL1 whole entry, looked up): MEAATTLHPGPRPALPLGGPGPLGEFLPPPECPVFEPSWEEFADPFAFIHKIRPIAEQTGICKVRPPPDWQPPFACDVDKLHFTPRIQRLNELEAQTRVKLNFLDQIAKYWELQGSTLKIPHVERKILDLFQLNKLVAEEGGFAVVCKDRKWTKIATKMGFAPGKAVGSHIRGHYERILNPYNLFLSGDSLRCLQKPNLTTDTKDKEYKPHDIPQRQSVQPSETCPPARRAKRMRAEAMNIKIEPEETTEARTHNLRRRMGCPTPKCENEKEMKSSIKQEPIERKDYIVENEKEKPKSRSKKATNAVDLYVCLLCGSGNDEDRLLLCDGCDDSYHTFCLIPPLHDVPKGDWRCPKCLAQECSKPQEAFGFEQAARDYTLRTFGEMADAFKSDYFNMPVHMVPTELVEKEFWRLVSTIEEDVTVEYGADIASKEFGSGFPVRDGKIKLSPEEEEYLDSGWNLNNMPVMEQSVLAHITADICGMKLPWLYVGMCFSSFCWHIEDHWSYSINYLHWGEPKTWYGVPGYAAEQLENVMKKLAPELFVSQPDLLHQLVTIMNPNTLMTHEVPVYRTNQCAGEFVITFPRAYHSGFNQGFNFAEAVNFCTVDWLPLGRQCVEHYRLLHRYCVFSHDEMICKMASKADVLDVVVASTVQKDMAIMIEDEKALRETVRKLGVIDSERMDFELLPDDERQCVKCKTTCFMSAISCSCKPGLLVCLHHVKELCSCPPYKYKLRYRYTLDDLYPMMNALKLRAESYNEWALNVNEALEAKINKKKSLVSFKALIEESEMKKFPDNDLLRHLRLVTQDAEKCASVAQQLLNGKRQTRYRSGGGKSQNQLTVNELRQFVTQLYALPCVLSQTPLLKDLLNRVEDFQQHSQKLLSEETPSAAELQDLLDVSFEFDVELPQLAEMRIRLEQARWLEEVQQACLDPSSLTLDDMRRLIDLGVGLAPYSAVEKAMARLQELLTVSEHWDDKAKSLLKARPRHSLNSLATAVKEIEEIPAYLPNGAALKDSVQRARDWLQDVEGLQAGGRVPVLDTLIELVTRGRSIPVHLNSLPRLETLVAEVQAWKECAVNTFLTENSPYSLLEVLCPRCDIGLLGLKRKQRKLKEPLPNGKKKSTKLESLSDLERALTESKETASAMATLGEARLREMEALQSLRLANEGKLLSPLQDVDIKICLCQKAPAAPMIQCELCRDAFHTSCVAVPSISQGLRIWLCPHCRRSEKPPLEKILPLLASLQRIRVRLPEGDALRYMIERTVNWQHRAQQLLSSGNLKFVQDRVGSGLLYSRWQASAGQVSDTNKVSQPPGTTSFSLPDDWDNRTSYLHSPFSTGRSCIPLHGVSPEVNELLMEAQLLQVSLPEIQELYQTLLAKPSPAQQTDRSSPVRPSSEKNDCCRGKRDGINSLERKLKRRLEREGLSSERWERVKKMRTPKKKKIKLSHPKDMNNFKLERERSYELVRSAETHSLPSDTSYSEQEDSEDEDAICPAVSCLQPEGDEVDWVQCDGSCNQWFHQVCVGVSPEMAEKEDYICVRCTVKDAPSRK
How it was run: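 Coupled FDH/NAD⁺ fluorescence readout. KDM5BΔAP 200 nM final; compound titration, 10 min RT preincubation; substrate mix 12.5 µM H3K4me3, 25 µM 2-OG, 50 µM Fe(II), 100 µM ascorbate, 0.25 mM NAD⁺, 0.25 U/mL FDH; ΔRFU over 30 min.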
In the case of `Cc1ccc(-n2nnnc2SCc2nc3ccsc3c(=O)[nH]2)c(C)c1`, the Potency is reported as “inactive”.
`Cc1nc(CN2Cc3nc(-c4cccc(C(F)(F)F)c4)ccc3OCC2=O)cs1` was tested, and the Potency was inconclusive: 39.8 µM [inhibitor, partial curve, poor fit].
`CN(C)c1ccc(CN2CCC3(CC2)COc2ccccc2C(=O)N3)cc1` was tested, and the Potency was inconclusive: 25.1 µM [inhibitor, single point].
`Cc1ccc(Nc2nnc(-c3ccc(C)c(S(=O)(=O)NCc4nc5ccccc5[nH]4)c3)c3ccccc23)cc1` was tested, and the Potency was inconclusive: 15.8 µM [inhibitor, partial curve, poor fit].
`CCOc1ccccc1Oc1c(C(F)(F)F)oc2cc(OC(=O)C(C)C)ccc2c1=O` was tested, and the Potency was “inactive”.
`CCc1nc(C)cc(-c2cc(OC)c(OC)c(OC)c2)n1` was tested, and the Potency was active: 25.1 µM.
For `CS(=O)(=O)CCC(C(=O)Nc1cccc(C(F)(F)F)c1)N1Cc2ccccc2C1=O` (stereo unspecified), the Potency was inconclusive: 31.6 µM [inhibitor, single point].
For `Cc1ccc(OCc2nc3ccccc3n2CCOc2ccc(Cl)cc2)cc1`, the activity change, negative = inhibition was inconclusive: -30.1% [inhibitor].
For `O=C(O)c1cc(-c2ccc3ccccc3c2)nc2ccc(F)cc12`, the Potency was inconclusive: 14.1 µM [inhibitor, partial curve, poor fit].
`O=[N+]([O-])c1ccc(/C=N/c2nc3c(s2)CCCC3)cc1` was tested, and the Potency was inconclusive: 22.4 µM [inhibitor, partial curve, poor fit].
For `O=C1NC2(CCCC2)C(=O)N1Cc1coc(-c2cccc(Cl)c2)n1`, the Potency was “inactive”.
For `CCc1ccc(NC(=O)CCS(=O)(=O)c2ccc3c(c2)n(C)c(=O)c(=O)n3C)cc1`, the Potency was inconclusive: 8.91 µM [inhibitor, partial curve, poor fit].
With `CC(C)COc1ccc(C(=O)N(Cc2ccc(N(C)C)cc2)Cc2ccco2)cc1` the Potency was inconclusive: 25.1 µM [inhibitor, partial curve, poor fit].
For `Cc1ccc(/C=C/c2nc3ccccc3[nH]2)cc1`, the Potency was inconclusive: 28.2 µM [inhibitor, partial curve, poor fit].
For `O=S(=O)(N[C@H]1CO[C@H]2[C@@H]1OC[C@@H]2Nc1nccc(-c2cccs2)n1)c1cccs1`, the Potency was active: 22.4 µM.
`CC(C)c1noc(-c2cccn3c(CNC(=O)c4ccc(F)cc4Cl)nnc23)n1` was tested, and the Potency was active: 25.1 µM.
For `COc1ccc(-c2noc(CSc3nnc(-c4ccco4)n3C3CCCCC3)n2)cc1OC`, the Potency was inconclusive: 31.6 µM [inhibitor, single point].
With `COc1cccc(NC(=O)c2cc[n+]([O-])cc2)c1` the Potency was “inactive”.
With `C[S+](=O)([O-])N1Cc2ccccc2CC2(CCN(CC3CCNCC3)CC2)C1` the Potency was “inactive”.
In the case of `O=C1c2ccccc2NC(c2csc(-c3ccc(F)cc3)n2)N1CC(F)(F)F` (stereo unspecified), the Potency is reported as inconclusive: 22.4 µM [inhibitor, partial curve, poor fit].
`COc1ccc(OC)c(NC(=O)CN2C(=O)COc3ccc(S(=O)(=O)NC4CCCC4)cc32)c1` was tested, and the activity change, negative = inhibition was inconclusive: -31.4% [inhibitor].
In the case of `O=C1NCCOCCCN(S(=O)(=O)c2cccc(F)c2)[C@H]2CCC[C@@H]12`, the Potency is reported as “inactive”.
With `O=C1NCC2(CCCN(C(=O)c3cn[nH]c3-n3cnnn3)C2)O1` (stereo unspecified) the Potency was “inactive”.
With `O=C(Cn1c(-c2cccs2)cc2ccccc21)NCCc1ccc(Cl)cc1` the Potency was inconclusive: 2.82 µM [inhibitor, full curve, poor fit].
For `COC(=O)C(C)Sc1ncnc2c1c(-c1ccccc1)cn2-c1ccc(F)cc1` (stereo unspecified), the Potency was inconclusive: 8.91 µM [inhibitor, partial curve, poor fit].
`CN(C)C[C@@H]1CN(c2ncccn2)C[C@H]1NC(=O)c1cc(F)ccc1Cl` was tested, and the Potency was active: 31.6 µM.
With `O=C(Cc1ccccc1)Nc1cccc(-c2cn3cccnc3n2)c1` the Potency was inconclusive: 28.2 µM [inhibitor, partial curve, poor fit].
In the case of `COc1cccc(CN2CCCCCCNC(=O)[C@@H]3CCC[C@@H]32)c1OC`, the Potency is reported as inconclusive: 8.91 µM [inhibitor, single point].
In the case of `Cc1cccc(N2CCN(C(=O)CCc3c(C)nc4ncnn4c3C)CC2)c1C`, the Potency is reported as inconclusive: 39.8 µM [inhibitor, single point].
In the case of `CCOc1cc(=O)n2c(c1C(=O)NCc1cc(OC)ccc1OC)CCCC2`, the Potency is reported as “inactive”.
In the case of `COc1ccc(C(=O)N2CCC3(CC2)c2[nH]c4ccccc4c2CCN3C)c(OC)n1`, the Potency is reported as “inactive”.
With `C=C(C)CSC1=C(C#N)C(c2sccc2C)CC(=O)N1` (stereo unspecified) the Potency was “inactive”.
For `O=C1Cc2c(-c3ccccc3)n[nH]c2CN1CC1CCOCC1`, the Potency was inconclusive: 39.8 µM [inhibitor, partial curve, poor fit].
With `CCn1ncc(N2CCC(NC(=O)c3cccs3)CC2)cc1=O` the Potency was “inactive”.
In the case of `COc1cc(OC)cc(C(=O)NC2CCN(c3cc(-c4cccs4)[nH]n3)C2)c1` (stereo unspecified), the Potency is reported as active: 3.55 µM.
In the case of `Cc1nc2c(c(C)nn2-c2ccccc2)c(C)c1CCC(=O)NCCc1ccccc1`, the Potency is reported as inconclusive: 25.1 µM [inhibitor, partial curve, poor fit].
`O=C(Nc1ccc(F)c(F)c1F)c1ccc(-c2ccccc2)cc1` was tested, and the Potency was “inactive”.
For `Cc1noc(C)c1-c1cc2c(c(-c3ccccc3Oc3ccccc3)c1)C(=O)N(C)C2`, the Potency was inconclusive: 35.5 µM [inhibitor, single point].
For `CN1CCN(C(=O)CCc2nc(C3CCCN3C(=O)NCCc3ccccc3)no2)CC1` (stereo unspecified), the Potency was “inactive”.
In the case of `C=CCn1c(SC(F)F)nc2scc(-c3ccco3)c2c1=O`, the Potency is reported as inconclusive: 22.4 µM [inhibitor, partial curve, poor fit].
`CCOc1cccc(/C=C(/C#N)C(=O)c2ccccc2OC)c1` was tested, and the Potency was inconclusive: 39.8 µM [inhibitor, single point].
For `CCn1cc(S(=O)(=O)N[C@@H]2CN(c3ncccn3)C[C@H]2CN(C)C)cn1`, the Potency was inconclusive: 25.1 µM [inhibitor, partial curve, poor fit].
`COc1ccc(CNc2oc(-c3ccccc3)nc2C#N)cc1OC` was tested, and the Potency was inconclusive: 25.1 µM [inhibitor, partial curve, poor fit].
`CCOC(=O)CC1(NC(=O)N2CCCC2c2ccco2)CCCCC1` (stereo unspecified) was tested, and the Potency was inconclusive: 20 µM [inhibitor, single point].
`CC1(CCCCN2CCOCC2)COc2ccc(C(=O)Nc3cccc(Cl)c3)cc2N1` (stereo unspecified) was tested, and the Potency was inconclusive: 25.1 µM [inhibitor, single point].
For `CC(C)(C)c1ccc(C(=O)NCc2nnc3c(-c4nc(C5CC5)no4)cccn23)cc1`, the Potency was inconclusive: 3.55 µM [inhibitor, single point].
`N#Cc1ccc(CNC2(Cc3cc(CN4CCN(c5ccccc5)CC4)on3)COC2)cc1` was tested, and the Potency was “inactive”.
For `CC(C)c1noc([C@@H]2C[C@H](NS(=O)(=O)Cc3ccccc3)CN2C)n1`, the Potency was inconclusive: 39.8 µM [inhibitor, single point].
`Cc1cc(-c2ccccc2)nc(=S)[nH]1` was tested, and the Potency was inconclusive: 22.4 µM [inhibitor, partial curve, poor fit].
In the case of `COc1ccc(CN2C/C(=C/c3ccc(C)cc3)N3C(=O)C[C@@H](c4ccccc4)N=C23)c(OC)c1`, the Potency is reported as inconclusive: 35.5 µM [inhibitor, single point].
With `Fc1cccc(CNc2ncnc3cc(Cl)ccc23)c1F` the Potency was inconclusive: 31.6 µM [inhibitor, single point].
`Cc1ccc(N2CC(NC(=O)c3ccc(S(=O)(=O)N4CCCCC4)cc3)CC2=O)cc1` (stereo unspecified) was tested, and the Potency was “inactive”.
In the case of `O=C(CCc1cccnc1)NCc1cccc(C(F)(F)F)c1`, the Potency is reported as “inactive”.
For `Cc1cc(C(=O)NC2CCCc3c2cnn3-c2cccc(C)c2C)c(C)o1` (stereo unspecified), the Potency was inconclusive: 15.8 µM [inhibitor, partial curve, poor fit].
With `COCCN1CCCCCC(O)c2cc(C(=O)NCC(C)C)ccc21` (stereo unspecified) the Potency was inconclusive: 25.1 µM [inhibitor, partial curve, poor fit].
For `COc1ccc(N2CC(NC(=O)c3cc4ccccc4o3)CC2=O)cc1OC` (stereo unspecified), the activity change, negative = inhibition was inconclusive: -32.1% [inhibitor].
In the case of `COc1cc(NC(=O)Cc2c(C)c3c(OC)cc(OC)cc3oc2=O)cc(OC)c1`, the Potency is reported as inconclusive: 2.51 µM [inhibitor, full curve, poor fit].
With `COCc1cc(=O)[nH]c(/N=C(\N)Nc2c(F)cccc2F)n1` the Potency was inconclusive: 39.8 µM [inhibitor, single point].
With `COCC1CN(C2CCC2)CC12CCN(C(=O)CCc1ccccc1)CC2` (stereo unspecified) the Potency was inconclusive: 12.6 µM [inhibitor, partial curve].
With `CCn1nccc1C(=O)N1CCC2(CC1)NC(=O)N(c1ccc(F)cc1)N2` the Potency was “inactive”.
For `CC(C)CC(NC(=O)C1CCCCC1)C(=O)NCCc1ccccc1` (stereo unspecified), the Potency was “inactive”.
With `CCOc1ccc2c(n1)CCN(C(=O)c1ccsc1)C2` the Potency was “inactive”.
In the case of `C[C@H](C(=O)N(C)CCC#N)C1CC[C@@]2(C)Cc3sc(NC(=O)c4cccn4C)nc3[C@@H](C)[C@@H]2[C@H]1O` (stereo partly specified), the Potency is reported as inconclusive: 25.1 µM [inhibitor, single point].
With `CC(=O)c1cccc(NC(=O)c2c(N3CCCC3=O)c3cc(F)ccc3n2C)c1` the Potency was inconclusive: 17.8 µM [inhibitor, partial curve, poor fit].
With `N#Cc1ccc(CN2CC[C@@H]3C(=O)NCCCCCCN(Cc4ccncc4)[C@@H]3C2)cc1` the Potency was inconclusive: 20 µM [inhibitor, partial curve, poor fit].
`Cc1n[nH]c(C)c1CCC(=O)Nc1cccn2nc(C3CCC3)nc12` was tested, and the Potency was inconclusive: 7.08 µM [inhibitor, partial curve].
